Laboratory results as given in PubChem BioAssay AID652106 (National Center for Advancing Translational Sciences (NCATS), 2013).
In all, about 370,000 compounds went through this assay and about 500 (0.14%) were called active. Inconclusive means that the source gave no clear call. Such entries were picked first, then a sample of the others. The call rests on the fitted dose curve; in most records, active means well fitted activation curve with a large enough effect; inconclusive means small, poorly fitted or top-dose-only effect; inactive means no such curve, though single readings can be large or run the other way. Potencies beside an inconclusive call are fits to weak or partial responses and may not hold up.

Experiment: qHTS of alpha-syn Inhibitors; further: nearly all actives have a fitted effect of over 65% in size; on growth rescue (activation): % of control where 0% means no effect
Details: Yeast expressing alpha-synuclein, BacTiter-Glo, 24 h; Potency: growth rescue unless noted; growth rescue (activation): at 46.1 µM (top of the series) unless noted
Procedure, shortened: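 Galactose-induced alpha-syn yeast (OD600=0.02, raffinose-pregrown) + pinned cpd, 24 hr, 30 deg C; growth by BacTiter-Glo luminescence. Growth restoration scores as activation.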
Potency means the concentration at half of the fitted maximal effect; tags describe the fitted curve by direction and shape.

Potency, inactive:
O=C(CN1CCc2ccccc2C1)Nc1ccccc1F
CCOC(=O)C1=CCN(S(=O)(=O)c2ccccc2F)C1c1ccc(C)cc1 (stereo unspecified)
COc1cc(S(C)=O)ccc1-c1nc2ncccc2[nH]1 (stereo unspecified)
O=C1C=C(c2ccc(CO)cc2)C[C@@H](c2ccc(F)cc2)C1
O=C(OCC(=O)N1CCOCC1)c1ccc2ccccc2c1O
CC1CCN(C(=O)c2ccc3c(Cl)c4c(nc3c2)CCCC4)CC1
Cc1sc2nc3c4ccccc4c(NCc4ccco4)nn3c(=O)c2c1C

Potency, inconclusive:
Cc1ccc(O)c(C(=O)C=Cc2ccccc2)c1 31.6 µM [activator, single point]
Cc1ccc(C)c(NC(=S)N2CCC(c3nc4ccccc4s3)CC2)c1 35.5 µM [activator, single point]
Brc1ccc2nc(SCCOc3ccccc3)[nH]c2c1 5.62 µM [activator, single point]
Cc1ccccc1N1CCN(C2CCCN(C(=O)CSc3ccccn3)C2)CC1 (stereo unspecified) 28.2 µM [activator, single point]
O=C(c1cccs1)N1C[C@H](n2cc(C3CC3)nn2)[C@@H](O)C[C@@H]1c1ccc(Cl)cc1 22.4 µM [activator, single point]
CN(C(=O)CCN1C(=O)C(C)(C)Nc2ccccc21)c1ccccc1 5.62 µM [activator, single point]
O=[N+]([O-])c1cc(CN2CCN(c3ccccc3)CC2)c(O)c2ncccc12 28.2 µM [activator, single point]
Cn1c(SCC(=O)NC2CCS(=O)(=O)C2)nc2ccccc21 (stereo unspecified) 5.62 µM [activator, single point]
CCCCn1c(NC(=O)C2CCCCC2)nc2ccccc21 35.5 µM [activator, single point]
CC(C)OCCCNC(=O)c1ccccc1Oc1ccccc1 5.62 µM [activator, single point]
CN(C)CCCN1c2ccccc2Sc2ccccc21 4.47 µM [activator, single point]
CCOc1ccc(C2CC(c3c(O)c4ccccc4oc3=O)=NN2c2ccccc2)cc1OC (stereo unspecified) 6.31 µM [activator, single point]
COC(=O)[C@]12CCCCC=C1N(Cc1cccc3ccccc13)C(=O)[C@H](CC(=O)NCc1cccs1)C2 31.6 µM [activator, single point]

Growth rescue (activation), inconclusive:
O=C(Nc1ccc(F)cc1)C1CCN(c2nnnn2-c2ccccc2)CC1 59.2% [activator]
